Test results as given in paper PMC7673117.
No constants are given. Whether binding was seen depends on the method and setting. Some results given as binding are weak or reduced against the parent protein; the word gives no strength.

Chains of the proteins cited; added tags and fusions are not shown. Residues count along the entry.
UniProt P13747, residues 22-358: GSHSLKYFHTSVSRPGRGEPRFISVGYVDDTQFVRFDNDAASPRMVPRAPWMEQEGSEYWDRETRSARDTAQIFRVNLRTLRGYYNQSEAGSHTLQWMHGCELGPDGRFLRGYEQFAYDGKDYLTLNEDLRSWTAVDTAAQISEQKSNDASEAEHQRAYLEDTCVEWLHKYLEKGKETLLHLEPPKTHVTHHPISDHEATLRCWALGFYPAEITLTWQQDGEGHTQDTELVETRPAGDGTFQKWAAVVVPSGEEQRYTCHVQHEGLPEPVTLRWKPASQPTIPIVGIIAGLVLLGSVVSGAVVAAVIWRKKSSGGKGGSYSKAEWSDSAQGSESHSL

Target: human leukocyte antigen (HLA)-E on 721.174 cells (human (endogenous in 721.174 cells)) (UniProt P13747)
Experiment: flow cytometry on cells; only the binder purified

In the case of GIDPHLPTL [LMP1 peptide variant … (GID)], the binding is reported as “binds”.
